59 compounds from PubChem BioAssay AID360 (National Center for Advancing Translational Sciences (NCATS), 2006) can be followed below.

Hit rate of the full screen: of about 48,000 compounds, about 550 (1.1%) were called active. About 4% were inconclusive and are not listed. Cut-off read from the data, not from the text of the source: active = potency below about 15 µM; inconclusive = mostly about 16 µM to 33 µM; inactive = weaker than that. This is one part of the list. Bounds are passed on as bounds.
Potency is the fitted concentration of half-maximal effect.

This assay addresses Lysosomal acid glucosylceramidase (Homo sapiens) (UniProt P04062). Put plainly: Glucocerebrosidase.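 Note: the screen sought inhibitors.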 The following applies: purified enzyme, resorufin glucoside fluorescence (screen aimed at inhibitors), 20 min. The gist of the method: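 Compounds titrated against 0.2 nM normal enzyme, 30 uM resorufin beta-D-glucopyranoside substrate, citrate/phosphate buffer with taurocholate and tween-20, pH 5.9. Reaction ran 20 min at room temperature; fluorescence (Ex 548/Em 600) gave AC50.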
UniProt P04062, sequence (P04062 whole entry, looked up): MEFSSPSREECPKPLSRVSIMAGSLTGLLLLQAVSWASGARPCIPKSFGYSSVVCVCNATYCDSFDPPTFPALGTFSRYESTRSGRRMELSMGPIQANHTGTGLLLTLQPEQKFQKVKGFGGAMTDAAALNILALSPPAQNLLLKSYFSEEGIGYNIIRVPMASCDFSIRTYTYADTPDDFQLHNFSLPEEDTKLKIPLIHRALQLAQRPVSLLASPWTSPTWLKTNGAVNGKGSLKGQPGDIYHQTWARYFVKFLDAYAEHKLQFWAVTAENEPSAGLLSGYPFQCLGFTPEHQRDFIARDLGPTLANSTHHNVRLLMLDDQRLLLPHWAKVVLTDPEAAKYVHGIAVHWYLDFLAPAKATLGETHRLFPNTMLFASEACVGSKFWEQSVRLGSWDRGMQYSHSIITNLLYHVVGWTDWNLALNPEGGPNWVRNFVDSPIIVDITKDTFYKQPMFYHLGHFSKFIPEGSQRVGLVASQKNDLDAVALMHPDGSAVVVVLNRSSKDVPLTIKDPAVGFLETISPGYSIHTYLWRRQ
For `Cc1ccc(CCNC(=O)CCNS(=O)(=O)c2ccc3c(c2)c(=O)n(C)c(=O)n3C)cc1`, the Potency was inactive: > 76.9 µM.
`COc1ccc(S(=O)(=O)N(C)CC(=O)Nc2ccccc2C(F)(F)F)cc1`: the Potency is inactive: > 76.9 µM.
In the case of `Cc1ccc(N2CC(C(=O)Oc3cccc(N4C(=O)CCC4=O)c3)CC2=O)cc1` (centres undefined), the Potency is inactive: > 76.9 µM.
`Cc1cccc(NC(=O)C2CCN(c3nc(C)cc(C)n3)CC2)c1`: the Potency is inactive: > 76.9 µM.
For the compound `Nc1nc2ccc(C(=O)Nc3ccccc3)cc2s1`, the Potency result is “inactive”.
Take `CCCCn1c(SCC(=O)N2CC(=O)Nc3ccccc32)nnc1-c1ccoc1C`: the Potency was inactive: > 76.9 µM.
Take `COc1ccccc1OCCn1c(C(C)O)nc2ccccc21` (centres undefined): the Potency is inactive: > 76.9 µM.
As for `O=C(Cc1c(O)c2ccccc2[nH]c1=O)NC1CCCCCC1`, the Potency is inactive: > 76.9 µM.
With `CC(C)OC(=O)CCCN1C(=O)c2ccc(N)cc2C1=O` the figure was inactive: > 76.9 µM.
Turning to `CC(C)C(c1nnnn1C1CCCC1)N1CCN(c2ccccc2F)CC1` (centres undefined), the Potency result was “inactive”.
For the compound `COc1cccc(NC(=O)N2CCCC(C(=O)Nc3ccccc3OC)C2)c1` (centres undefined), the Potency is inactive: > 76.9 µM.
On to `O=C(CSc1nc2ccsc2c(=O)n1Cc1ccccc1)NCc1ccco1`, for which the Potency was inactive: > 76.9 µM.
In the case of `CCOC(=O)N1CCC(Nc2c(NCCCN3CCN(c4ccc(OC)cc4)CC3)c(=O)c2=O)CC1`, the Potency is inactive: > 76.9 µM.
With `CCNC(=O)C1CC(=O)N(Cc2ccc3c(c2)OCO3)C(=Nc2ccc(F)cc2)S1` (centres undefined), the Potency is inactive: > 76.9 µM.
Take `[N-]=[N+]=CC(=O)CC(c1ccccc1)N1C(=O)c2ccccc2C1=O` (centres undefined): the Potency is inactive: > 76.9 µM.
Consider `Cc1ccc(S(=O)(=O)NCCCNC(=O)N2CCOCC2)cc1`, for which the Potency was inactive: > 76.9 µM.
With `Cc1cc(NC(=O)CC(C)(C)C)nc2c1c(=O)oc1ccccc12`, the Potency was inactive: > 76.9 µM.
As for `O=C(CSc1nnc2scc(-c3ccc(Cl)cc3)n12)NCc1ccc2c(c1)OCO2`, the Potency was inactive: > 76.9 µM.
Consider `O=C(CCC1CCCC1)Nc1ccon1`, for which the Potency was inactive: > 76.9 µM.
Take `COc1ccc(NC(=O)CSc2nc(-c3ccncc3)nn2CC(=O)N2CCCC2)cc1`: the Potency is inactive: > 76.9 µM.
As for `CC(C)(C)S(=O)(=O)c1ccc2nc3c(n2c1)CCCC3`, the Potency is inactive: > 76.9 µM.
On to `CCCCn1c(SCC(=O)c2ccc3c(c2)OCCO3)nnc1-c1ccoc1C`, for which the Potency was inactive: > 76.9 µM.
Consider `O=C(c1ccco1)N1CCN(c2cc(=O)n(C3CCCCC3)c(=O)[nH]2)CC1`, for which the Potency is inactive: > 76.9 µM.
With `CC1=Nn2c(nnc2-c2ccco2)SC1`, the Potency is inactive: > 76.9 µM.
With `O=C(Nc1ccc(Cl)cc1C(=O)N1CCOCC1)c1ccco1` the figure was inactive: > 76.9 µM; with `CCCN(CCC)CCCNC(=O)c1cn(CCOC)c(=O)c2c1c1ccccc1n2C`, inactive: > 76.9 µM.
With `CC(C)CCNC(=O)NC(=O)CSc1nnc(-c2ccccc2Br)o1` the figure was inactive: > 76.9 µM; with `O=C(CSc1ncc(-c2ccccc2)n1CC1CCCO1)N1CCCCC1` (centres undefined), inactive: > 76.9 µM; with `Cc1sc2ncnc(N3CCN(c4ncccn4)CC3)c2c1C`, inactive: > 76.9 µM.
On to `Cc1c(N=CN2CCOCC2)c(=O)n(C)c(=O)n1C`, for which the Potency is inactive: > 76.9 µM.
With `CCOc1cc(NC(=O)C2CCCCC2)c(OCC)cc1NC(=O)c1ccco1` the figure was inactive: > 76.9 µM; with `COc1ccc(S(=O)(=O)N2CCCC(C(=O)N3CCOCC3)C2)cc1C` (centres undefined), inactive: > 76.9 µM.
With `CN=C1SC(CC(=O)Nc2sc(C)c(C)c2C(=O)OC)C(=O)N1C` (centres undefined) the figure was inactive: > 76.9 µM; with `Cc1ccc(Nc2nc(N)nc(CN3CCCCCC3)n2)cc1`, “inactive”; with `Cn1c(CCNC(=O)c2ccco2)nc2cc(NS(=O)(=O)c3ccccc3)ccc21`, inactive: > 76.9 µM.
`O=C(c1ccccc1)N1CCN(C(=O)C23CC4CC(CC(C4)C2)C3)CC1`: the Potency is inactive: > 76.9 µM.
With `Cc1ccc2nc(/C(C#N)=N/O)[nH]c2c1` the figure was inactive: > 76.9 µM; with `COC(=O)C(C)Sc1nc2c(c(=O)n(C)c(=O)n2C)n1Cc1cccc(C)c1` (centres undefined), inactive: > 76.9 µM.
For `CCCC(=O)Nc1nnc(-c2ccco2)s1`, the Potency was inactive: > 76.9 µM.
For the compound `CC1CN=C(NC2CCCCC2C)S1` (centres undefined), the Potency is inactive: > 76.9 µM.
The value for `COc1ccc(-c2cn3cccnc3n2)cc1NC(=O)C1CCCC1` was “inactive”; that for `CCc1nn(CC(=O)O)c(=O)c2ccccc12` was inactive: > 76.9 µM.
As for `COc1ccc(OC)c(S(=O)(=O)N2CCN(C)CC2)c1`, the Potency was inactive: > 76.9 µM.
Turning to `O=c1[nH]c(-c2ccc(Cl)cc2)nc2c1cnn2-c1ccccc1`, the Potency was inactive: > 76.9 µM.
With `CCc1ccccc1NC(=O)COC(=O)C1CC(=O)N(c2ccc(F)cc2)C1` (centres undefined), the Potency is inactive: > 76.9 µM.
Consider `COc1ccc(C2/C(=C(/O)c3ccc4c(c3)CC(C)O4)C(=O)C(=O)N2CCN2CCOCC2)cc1` (centres undefined), for which the Potency was inactive: > 76.9 µM.
As for `Cc1cccnc1NC(=O)c1ccc2nc(N)sc2c1`, the Potency was inactive: > 76.9 µM.
With `CSCCC(NC(=O)c1ccco1)C(=O)O` (centres undefined) the figure was inactive: > 76.9 µM; with `CC(=O)NCCn1c(SCC(=O)NCc2ccco2)nc2ccccc2c1=O`, inactive: > 76.9 µM.
In the case of `COc1cccc(-c2cc(C(F)(F)F)nc(N3CCC(C)CC3)n2)c1`, the Potency is inactive: > 76.9 µM.
The value for `Cc1ccc(NC(=O)NC2CCN(CC(=O)Nc3nccs3)CC2)cc1` was inactive: > 76.9 µM; that for `CCC(C)(C)NC(=O)C(c1cccnc1)N(CCOC)C(=O)Cn1nnc2ccccc21` (centres undefined) was inactive: > 76.9 µM.
For the compound `O=C(NC1=NCCS1)C1CC(=O)N(c2ccccc2)C1` (centres undefined), the Potency was inactive: > 76.9 µM.
Turning to `O=C(c1ccco1)N1CCN(C(c2ccccc2F)c2nnnn2Cc2cccs2)CC1` (centres undefined), the Potency was inactive: > 76.9 µM.
Take `Cc1c(Cc2ccccc2)c(=O)oc2cc(OCc3nn[nH]n3)ccc12`: the Potency was inactive: > 76.9 µM.
With `COc1ccccc1-c1noc(-c2cccnc2)n1` the figure was inactive: > 76.9 µM; with `Cc1csc(NC(=O)CNS(=O)(=O)c2cccs2)n1`, inactive: > 76.9 µM.
Regarding `CCOC(=O)C(C)C1(O)c2ccccc2-c2ncccc21` (centres undefined), the Potency was inactive: > 76.9 µM.
Regarding `C=CCNCc1cccn1-c1ccccc1`, the Potency was inactive: > 76.9 µM.
